Data reported in PubChem BioAssay AID686971 (National Center for Advancing Translational Sciences (NCATS), 2013).
Hit rate of the full screen: of about 360,000 compounds, about 7,500 (2.1%) were called active. This list was built around the results that the source calls inconclusive (neither active nor inactive); the mix of calls is not that of the screen. The call rests on the fitted dose curve; in most records, active means well fitted cell-killing curve with a large enough effect; inconclusive means small, poorly fitted or top-dose-only effect, or effect the other way, or another doubt; inactive means no such curve, though single readings can be large or run the other way. No potency is given beside an inconclusive call; the fits are too rough.

test: qHTS for induction of synthetic lethality in tumor cells producing 2HG: qHTS for the HT-1080-IDH1KD cell line; conditions: HT-1080 IDH1 knockdown viability, ATP luminescence, 48 h; activity, negative = toxicity: at 46.1 µM (top of the series) unless noted;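 on activity, negative = toxicity: 0% = DMSO wells and -100% = cell-free medium wells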
Method in brief: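 Luminescent ATP read-out (CellTiter-Glo, 10 min at room temperature) after 48 h compound exposure at 37 °C gave viability of IDH1-knockdown HT-1080 cells. Activity was normalised to DMSO and cell-free wells, then fitted as concentration-response curves.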
Potency means the concentration at half of the fitted maximal effect; tags describe the fitted curve by direction and shape.

SMILES | Potency | activity, negative = toxicity
C[C@H]1CN([C@@H](C)CO)S(=O)(=O)c2ccc(C#CC(C)(C)O)cc2O[C@H]1CN(C)Cc1ccccc1 | inactive | 
Cc1cc(Br)c(NC(=O)c2c(-c3c(Cl)cccc3Cl)noc2C)c(Br)c1 | inactive | 
Nc1cc2nc3ccccc3oc-2cc1=O | inconclusive [cytotoxic, single point] | 
COc1ccc(OC)c(/C=C/c2ccnc3ccccc23)c1 | inconclusive [cytotoxic, partial curve] | 
Cc1ccc(NC(=O)Cn2c(O)c(N=NC(N)=S)c3ccccc32)cc1 | inconclusive [cytotoxic, single point] | 
O=C(NCc1ccco1)c1cc2sccc2n1Cc1ccc(F)cc1 | inconclusive [cytotoxic, single point] | 
CCN(CC)c1nc(-c2cccc(OC)c2O)nc2ccccc12 | inconclusive [cytotoxic, single point] | 
CCOC(=O)c1c(NC=O)sc2c1CCC2 |  | inconclusive: -32.4% [cytotoxic]
O=c1[nH]c(C2CCN(S(=O)(=O)c3ccc4c(c3)OCCO4)CC2)nc2c1nnn2Cc1c(F)cccc1Cl |  | inconclusive: -30.2% [cytotoxic]
O=C(NC12CC3CC(CC(C3)C1)C2)c1ccc(N2CCNCC2)c([N+](=O)[O-])c1 | inconclusive [cytotoxic, partial curve, poor fit] | 
CN(Cc1ccc(Cl)cc1Cl)C(=O)c1cc(=O)c2ccccc2o1 | inactive | 
CCOc1ccc(CCN2C(=S)N([C@@H](Cc3ccc(O)cc3)CN3CCC[C@@H]3CN3C(=S)NC[C@@H]3Cc3ccccc3)C[C@@H]2Cc2ccc(O)cc2)cc1 | inconclusive [cytotoxic, partial curve] | 
Fc1cccc(Cc2c(C3CCCCC3)nc3ccc(Cl)cn23)c1 | inconclusive [cytotoxic, single point] | 
O=C(NCc1cccnc1)c1ccc(COc2ccc(Cl)cc2)cc1 | inconclusive [cytotoxic, single point] | 
Oc1ccccc1/C=N/Nc1ccnc(SCc2ccccc2)n1 | inconclusive [cytotoxic, single point] | 
CCc1nc2c(OCc3ccc(Cl)cc3)cccn2c1N(C=O)Cc1ccccc1 | inconclusive [cytotoxic, single point] | 
CCSc1nc2ccccc2n1C(=O)/C=C/c1ccc(OC)c(OC)c1 | active: 5.8 µM | 
Cc1cccc(-c2nc(NCCCN3CCOCC3)c3ccccc3n2)c1 | inconclusive [cytotoxic, partial curve] | 
COc1ccc(OC)c(C2Nc3nc4ccccc4n3C(C)=C2C(=O)Nc2ccc(C)cc2C)c1 (centres undefined) | inconclusive [cytotoxic, partial curve] | 
O=C(CSc1nc2ccccc2o1)Nc1cc(C(F)(F)F)ccc1N1CCOCC1 |  | inconclusive: -30.8% [cytotoxic]
O=C(Cn1[nH]c(=O)c2ccccc2c1=O)OCC(=O)c1ccccc1 | inactive | 
Cc1cccc(CNC(=O)c2sc(=O)n(Cc3ccc(S(C)(=O)=O)cc3)c2C)c1 | inconclusive [cytotoxic, single point] | 

SMILES | Potency | activity, negative = toxicity
CCOC(=O)c1cc(-c2ccc(N)cc2)sc1N | inconclusive [cytotoxic, single point] | 
COc1ccc(-c2coc3c(C(=O)NCc4ccc(OC)c(OC)c4)cccc23)c(C)c1 | active: 4.11 µM | 
O=[N+]([O-])c1cccc(C(O)C23CN4CN(CN(C4)C2)C3)c1 (centres undefined) | inconclusive [cytotoxic, full curve, poor fit] | 
O=C(CN1C(=O)S/C(=C\c2cccc(Cl)c2)C1=O)NC1C=CS(=O)(=O)C1 (centres undefined) | inactive | 
COc1ccc(CNC(=O)c2cccc3c(-c4cccnc4)coc23)cc1OC |  | inconclusive: -34.1% [cytotoxic]
C=CCN1C(=O)S/C(=C/c2ccc(Sc3nc4ccccc4[nH]3)o2)C1=O | inconclusive [cytotoxic, single point] | 
CCN(Cc1ccccc1)S(=O)(=O)CCNC(=O)c1ccccc1 | inactive | 
COc1ccc(OC)c(NC(=O)Nc2ccc(O)c3ccccc23)c1 | inconclusive [cytotoxic, single point] | 
CC(=O)c1ccc(S(=O)(=O)NCCC(=O)OCC(=O)NCCc2ccccc2)cc1 | inconclusive [cytotoxic, partial curve] | 
CCOC(=O)c1ccccc1-n1c(C)cc(C2N=C(N)Nc3nc4ccccc4n32)c1C (centres undefined) | inconclusive [cytotoxic, single point] | 
CC1=C(C(=O)Nc2ccc(C(=O)NCCCN3CCCCC3C)cc2)SCCO1 (centres undefined) | inactive | 
COc1ccc(CC(=O)Oc2ccc(C)cc2Br)cc1OC | inactive | 
Cc1cccc(-n2c(O)c(C=Nc3cc(O)ccc3C)c3ccccc3c2=O)n1 | inconclusive [cytotoxic, single point] | 
CN(C)c1ccc(C(=O)c2ccc(N(C)C)c3ccccc23)cc1 | active: 0.0259 µM | 
CC1=NNC(=O)/C1=C\c1cn(-c2ccccc2)nc1-c1ccc(F)cc1 | active: 5.8 µM | 
CN(Cc1ccccc1)C(=O)c1csc(COCCO)n1 | inactive | 
CCn1c(NCCCO)nc2c(c1=O)C(C)(CC)Cc1ccccc1-2 (centres undefined) | inconclusive [cytotoxic, single point] | 
CCCCc1ccc(NC(=S)Nc2ccc(Nc3ccc(OC)cc3)cc2)cc1 | inconclusive [cytotoxic, single point] | 
CCOc1ccc(-c2nnc(NC(=O)CCCOc3cccc(C)c3)o2)cc1 | inconclusive [cytotoxic, single point] | 
OC(c1ccccc1)(c1ccccc1)C1CCN(CCCOc2ccc(F)cc2)CC1 | active: 23.1 µM | 
COC(=O)c1ccc(Cn2nnc3c(=O)[nH]c(C4CCCN(S(=O)(=O)c5ccc(C)cc5)C4)nc32)cc1 (centres undefined) | inactive | 
N#C/C(=C/c1ccc(-c2ccc(S(N)(=O)=O)cc2)o1)c1nc2ccccc2s1 | inconclusive [cytotoxic, partial curve] | 
